# In the supplement of paper PMC8728848:
# Some of the results follow.
# B1: MpL2 (Macrolepiota procera) (protein)
# chain: MSTQVSSGQTYKITNVKAGTVIDLSGEDNKSIIGYPYHSGKNQQWTFNWTGKAWTLRSASSGSYLGIEGTPADGTRLVAVNDPFEWHIWRDEANENAFRIFVPFTNYNLRLSGYGDTTPGTPVQLWWTWEGLHQTWTIDRP
# Experiments:
# Assay in all cases: glycan array binding signal (z-score within array); higher = stronger binding
# Conditions in all cases: glycan notation: IUPAC condensed, linker removed; mutation: D109R
# [1] = biological target: Gal(b1-3)GlcNAc(b1-6)GalNAc
# How it was run: (§1)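 The binding signal is a Z-score computed within each array. Data were drawn from 3228 arrays in the Consortium for Functional Glycomics database, restricted to those with a known protein sequence. Scores were averaged over arrays of the same protein sequence at different concentrations or buffers, and over linkers, and negative values can be taken as non-binding.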
# [2] = biological target: Gal(b1-3)GlcNAc(b1-6)[Gal(b1-3)]GalNAc
# How it was run: as §1
# Gal(b1-3)GlcNAc6S = biological target: Gal(b1-3)GlcNAc6S
# How it was run: as §1
# [3] = biological target: Gal(b1-3)[Fuc(a1-4)]GlcNAc
# How it was run: as §1
# [4] = biological target: Gal(b1-3)[Fuc(a1-4)]GlcNAc(b1-2)Man
# How it was run: as §1
# [5] = biological target: Gal(b1-3)[Fuc(a1-4)]GlcNAc(b1-2)Man(a1-3)[Gal(b1-3)[Fuc(a1-4)]GlcNAc(b1-2)Man(a1-6)]Man(b1-4)GlcNAc(b1-4)[Fuc(a1-6)]GlcNAc
# How it was run: as §1
# [6] = biological target: Gal(b1-3)[Fuc(a1-4)]GlcNAc(b1-3)Gal(b1-3)[Fuc(a1-4)]GlcNAc
# How it was run: as §1
# [7] = biological target: Gal(b1-3)[Fuc(a1-4)]GlcNAc(b1-3)Gal(b1-4)[Fuc(a1-3)]GlcNAc
# How it was run: as §1
# [8] = biological target: Gal(b1-3)[Fuc(a1-4)]GlcNAc(b1-6)GalNAc
# How it was run: as §1
# [9] = biological target: Gal(b1-3)[GlcNAc(b1-6)]GalNAc
# How it was run: as §1
# [10] = biological target: Gal(b1-3)[Neu5Ac(a2-6)]GalNAc
# How it was run: as §1
# [11] = biological target: Gal(b1-3)[Neu5Ac(a2-6)]GlcNAc(b1-4)Gal(b1-4)Glc
# How it was run: as §1
# [12] = biological target: Gal(b1-3)[Neu5Ac(b2-6)]GalNAc
# How it was run: as §1
# Gal(b1-4)Gal = biological target: Gal(b1-4)Gal
# How it was run: as §1
# [13] = biological target: Gal(b1-4)GalNAc(a1-3)[Fuc(a1-2)]Gal(b1-4)GlcNAc
# How it was run: as §1
# [14] = biological target: Gal(b1-4)GalNAc(b1-3)[Fuc(a1-2)]Gal(b1-4)GlcNAc
# How it was run: as §1
# Gal(b1-4)Glc = biological target: Gal(b1-4)Glc
# How it was run: as §1
# Gal(b1-4)Glc6S = biological target: Gal(b1-4)Glc6S
# How it was run: as §1
# Gal(b1-4)GlcNAc = biological target: Gal(b1-4)GlcNAc
# How it was run: as §1
# [15] = biological target: Gal(b1-4)GlcNAc(a1-6)Gal(b1-4)GlcNAc
# How it was run: as §1
# Gal(b1-4)GlcNAc(b1-2)Man = biological target: Gal(b1-4)GlcNAc(b1-2)Man
# How it was run: as §1
# [16] = biological target: Gal(b1-4)GlcNAc(b1-2)Man(a1-3)Man(b1-4)GlcNAc(b1-4)GlcNAc
# How it was run: as §1
# [17] = biological target: Gal(b1-4)GlcNAc(b1-2)Man(a1-3)[Gal(b1-4)GlcNAc(b1-2)Man(a1-6)]Man(b1-4)GlcNAc(b1-4)GlcNAc
# How it was run: as §1
# [18] = biological target: Gal(b1-4)GlcNAc(b1-2)Man(a1-3)[Gal(b1-4)GlcNAc(b1-2)Man(a1-6)]Man(b1-4)GlcNAc(b1-4)[Fuc(a1-6)]GlcNAc
# How it was run: as §1
# [19] = biological target: Gal(b1-4)GlcNAc(b1-2)Man(a1-3)[Gal(b1-4)GlcNAc(b1-2)Man(a1-6)][Gal(b1-4)GlcNAc(b1-4)]Man(b1-4)GlcNAc(b1-4)[Fuc(a1-6)]GlcNAc
# How it was run: as §1
# [20] = biological target: Gal(b1-4)GlcNAc(b1-2)Man(a1-3)[Gal(b1-4)GlcNAc(b1-2)Man(a1-6)][GlcNAc(b1-4)]Man(b1-4)GlcNAc(b1-4)[Fuc(a1-6)]GlcNAc
# How it was run: as §1
# [21] = biological target: Gal(b1-4)GlcNAc(b1-2)Man(a1-3)[GlcNAc(b1-2)Man(a1-6)]Man(b1-4)GlcNAc(b1-4)GlcNAc
# How it was run: as §1
# [22] = biological target: Gal(b1-4)GlcNAc(b1-2)Man(a1-3)[GlcNAc(b1-4)][Gal(b1-4)GlcNAc(b1-2)Man(a1-6)]Man(b1-4)GlcNAc(b1-4)GlcNAc
# How it was run: as §1
# [23] = biological target: Gal(b1-4)GlcNAc(b1-2)Man(a1-3)[Man(a1-6)]Man(b1-4)GlcNAc(b1-4)GlcNAc
# How it was run: as §1
# [24] = biological target: Gal(b1-4)GlcNAc(b1-2)Man(a1-6)Man(b1-4)GlcNAc(b1-4)GlcNAc
# How it was run: as §1
# [25] = biological target: Gal(b1-4)GlcNAc(b1-2)Man(a1-6)[GlcNAc(b1-2)Man(a1-3)]Man(b1-4)GlcNAc(b1-4)GlcNAc
# How it was run: as §1
# [26] = biological target: Gal(b1-4)GlcNAc(b1-2)Man(a1-6)[Man(a1-3)]Man(b1-4)GlcNAc(b1-4)GlcNAc
# How it was run: as §1
# [27] = biological target: Gal(b1-4)GlcNAc(b1-2)[Gal(b1-4)GlcNAc(b1-4)]Man(a1-3)[Gal(b1-4)GlcNAc(b1-2)Man(a1-6)]Man(b1-4)GlcNAc(b1-4)GlcNAc
# How it was run: as §1
# [28] = biological target: Gal(b1-4)GlcNAc(b1-2)[Gal(b1-4)GlcNAc(b1-4)]Man(a1-3)[Gal(b1-4)GlcNAc(b1-2)[Gal(b1-4)GlcNAc(b1-6)]Man(a1-6)]Man(b1-4)GlcNAc(b1-4)GlcNAc
# How it was run: as §1
# [29] = biological target: Gal(b1-4)GlcNAc(b1-2)[Gal(b1-4)GlcNAc(b1-4)]Man(a1-3)[GlcNAc(b1-4)][Gal(b1-4)GlcNAc(b1-2)Man(a1-6)]Man(b1-4)GlcNAc(b1-4)GlcNAc
# How it was run: as §1
# [30] = biological target: Gal(b1-4)GlcNAc(b1-2)[Gal(b1-4)GlcNAc(b1-4)]Man(a1-3)[GlcNAc(b1-4)][Gal(b1-4)GlcNAc(b1-2)[Gal(b1-4)GlcNAc(b1-6)]Man(a1-6)]Man(b1-4)GlcNAc(b1-4)GlcNAc
# How it was run: as §1
# [31] = biological target: Gal(b1-4)GlcNAc(b1-2)[Gal(b1-4)GlcNAc(b1-6)]Man(a1-6)[Gal(b1-4)GlcNAc(b1-2)Man(a1-3)]Man(b1-4)GlcNAc(b1-4)GlcNAc
# How it was run: as §1
# [32] = biological target: Gal(b1-4)GlcNAc(b1-2)[Gal(b1-4)GlcNAc(b1-6)]Man(a1-6)[Gal(b1-4)GlcNAc(b1-2)Man(a1-3)]Man(b1-4)GlcNAc(b1-4)[Fuc(a1-6)]GlcNAc
# How it was run: as §1
# [33] = biological target: Gal(b1-4)GlcNAc(b1-2)[Gal(b1-4)GlcNAc(b1-6)]Man(a1-6)[GlcNAc(b1-4)][Gal(b1-4)GlcNAc(b1-2)Man(a1-3)]Man(b1-4)GlcNAc(b1-4)GlcNAc
# How it was run: as §1
# [34] = biological target: Gal(b1-4)GlcNAc(b1-2)[Gal(b1-4)GlcNAc(b1-6)]Man(a1-6)[GlcNAc(b1-4)][Gal(b1-4)GlcNAc(b1-2)[Gal(b1-4)GlcNAc(b1-4)]Man(a1-3)]Man(b1-4)GlcNAc(b1-4)[Fuc(a1-6)]GlcNAc
# How it was run: as §1
# [35] = biological target: Gal(b1-4)GlcNAc(b1-3)Gal(b1-3)GalNAc
# How it was run: as §1
# [36] = biological target: Gal(b1-4)GlcNAc(b1-3)Gal(b1-3)GlcNAc
# How it was run: as §1
# [37] = biological target: Gal(b1-4)GlcNAc(b1-3)Gal(b1-4)Glc
# How it was run: as §1
# [38] = biological target: Gal(b1-4)GlcNAc(b1-3)Gal(b1-4)GlcNAc
# How it was run: as §1
# [39] = biological target: Gal(b1-4)GlcNAc(b1-3)Gal(b1-4)GlcNAc(b1-2)Man(a1-3)[Gal(b1-4)GlcNAc(b1-3)Gal(b1-4)GlcNAc(b1-2)Man(a1-6)]Man(b1-4)GlcNAc(b1-4)GlcNAc
# How it was run: as §1
binder,measurement,setting,value
B1,glycan array binding signal (z-score),[1],-0.196
same,glycan array binding signal (z-score),[2],-0.242
same,glycan array binding signal (z-score),Gal(b1-3)GlcNAc6S,-0.242
same,glycan array binding signal (z-score),[3],-0.267
same,glycan array binding signal (z-score),[4],-0.23
same,glycan array binding signal (z-score),[5],-0.241
same,glycan array binding signal (z-score),[6],-0.248
same,glycan array binding signal (z-score),[7],-0.267
same,glycan array binding signal (z-score),[8],-0.163
same,glycan array binding signal (z-score),[9],-0.246
same,glycan array binding signal (z-score),[10],-0.287
same,glycan array binding signal (z-score),[11],-0.253
same,glycan array binding signal (z-score),[12],-0.244
same,glycan array binding signal (z-score),Gal(b1-4)Gal,-0.256
same,glycan array binding signal (z-score),[13],-0.164
same,glycan array binding signal (z-score),[14],-0.107
same,glycan array binding signal (z-score),Gal(b1-4)Glc,-0.244
same,glycan array binding signal (z-score),Gal(b1-4)Glc6S,-0.229
same,glycan array binding signal (z-score),Gal(b1-4)GlcNAc,0.003
same,glycan array binding signal (z-score),[15],12.2
same,glycan array binding signal (z-score),Gal(b1-4)GlcNAc(b1-2)Man,-0.249
same,glycan array binding signal (z-score),[16],-0.085
same,glycan array binding signal (z-score),[17],0.999
same,glycan array binding signal (z-score),[18],0.18
same,glycan array binding signal (z-score),[19],1.38
same,glycan array binding signal (z-score),[20],0.239
same,glycan array binding signal (z-score),[21],-0.001
same,glycan array binding signal (z-score),[22],-0.094
same,glycan array binding signal (z-score),[23],-0.118
same,glycan array binding signal (z-score),[24],-0.201
same,glycan array binding signal (z-score),[25],-0.243
same,glycan array binding signal (z-score),[26],-0.238
same,glycan array binding signal (z-score),[27],1.8
same,glycan array binding signal (z-score),[28],2.87
same,glycan array binding signal (z-score),[29],0.508
same,glycan array binding signal (z-score),[30],1.73
same,glycan array binding signal (z-score),[31],1.86
same,glycan array binding signal (z-score),[32],2.31
same,glycan array binding signal (z-score),[33],0.336
same,glycan array binding signal (z-score),[34],1.35
same,glycan array binding signal (z-score),[35],-0.247
same,glycan array binding signal (z-score),[36],-0.195
same,glycan array binding signal (z-score),[37],0.145
same,glycan array binding signal (z-score),[38],0.419
same,glycan array binding signal (z-score),[39],1.19
